Where “and” joins values, the source holds several entries; their conditions need not be identical. Identical values can stand only once. This list was built around the results that the source calls inconclusive (neither active nor inactive); the mix of calls is not that of the screen. Potencies beside an inconclusive call are fits to weak or partial responses and may not hold up. Calls of active or inactive are those of the source. Calls come from the whole dose curve; as a rule, active = well fitted cell-killing curve with a large enough effect in the repeat runs; inconclusive = weak or mixed curves, or effect the other way; inactive = flat fitted curve, though single readings scatter.
Assays:
[1] = cAMP Responsive Elements (CRE) small molecule antagonists, cell-based qHTS assay: qHTS cell viability counter screen (AID 2060913); note: nearly all actives have a fitted effect of over 40% in size
In short: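 Cytotoxicity counter screen multiplexed with the CRE-bla antagonist read: HEK293T cells in DMEM with dialyzed FBS and 25 mM HEPES were treated 3 hrs under 0.25 uM final NKH477, then viability measured by CellTiter-Glo luminescence.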

[2] = cAMP Responsive Elements (CRE) small molecule agonists, cell-based qHTS assay: qHTS cell viability counter screen (AID 2060914);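 note: viability read after 3 h of compound exposure; nearly all actives have a fitted effect of over 50% in size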
In short: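 Cytotoxicity counter screen multiplexed with the CRE-bla reporter assay in HEK 293T cells: 3 h compound exposure at 37 °C, followed by CellTiter-Glo luminescence measured in the same wells.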
% is set by controls: 0 for no effect and ±100 for the full control effect; potency is the fitted concentration of half-maximal effect; tags give direction and shape of the fitted curve.

| SMILES | Potency [1] | Potency [2] | activity change, negative = cytotoxicity [2] |
| --- | --- | --- | --- |
| Nc1nc(N)c2nc(CNc3ccc(C(=O)N[C@@H](CCC(=O)O)C(=O)O)cc3)cnc2n1 | inconclusive: 64 µM [cytotoxic, single point] | inconclusive: 20.2 µM [cytotoxic, single point] |  |
| CCN(CC)c1ccc(C(=C2C=CC(=[N+](CC)CC)C=C2)c2cc(S(=O)(=O)O)ccc2S(=O)(=O)[O-])cc1 | inconclusive: 33.5 µM [cytotoxic, partial curve, poor fit] | inactive |  |
| CC=O | active: 63.9 µM | inconclusive: 63.9 µM [cytotoxic, partial curve, poor fit] |  |
| C/C(=C\C(C)CC(C)CC(C)C)C1CC(=O)OC1=O (configuration not stated) | inactive | inactive |  |
| CCCCCCCCCCCCCCCC[N+](C)(C)Cc1ccccc1 | active: 63.1 µM and active: 49.4 µM and active: 33.5 µM | active: 70.8 µM and active: 44.1 µM and active: 26.6 µM |  |
| C=C(C)C(=O)OCC(C)C | inconclusive: 2.27 µM [cytotoxic, single point] | inactive |  |
| CCN(CC)c1ccc(N)cc1 | inconclusive: 12.5 µM [cytotoxic, full curve, poor fit] | inconclusive: 56 µM [cytotoxic, partial curve] |  |
| O=C(O)c1cccc(-c2noc(-c3ccccc3F)n2)c1 | active: 23.7 µM | active: 21.1 µM |  |
| CO[C@@H]1[C@@H](OC)[C@H](C)[C@@](O)(CC(=O)O)O[C@H]1[C@H](C)[C@H]1O[C@@]2(CC[C@@](C)([C@H]3CC[C@@](C)([C@@H]4O[C@@H]([C@H]5O[C@](C)(O)[C@H](C)C[C@@H]5C)C[C@@H]4OC4C[C@H](OC)[C@@H](OC)[C@H](C)O4)O3)O2)C[C@H](O)[C@H]1C (some centres not stated) | inconclusive: 0.473 µM [cytotoxic, full curve, poor fit] | inconclusive: 1.19 µM [cytotoxic, full curve, poor fit] |  |
| O=C(Nc1cccc(C(F)(F)F)c1)c1cc(Br)cc(Br)c1O | inconclusive: 24.3 µM [cytotoxic, partial curve] | active: 27.3 µM |  |
| C=CCCCCCCCCC(=O)O | inactive | inconclusive: 6.68 µM [cytotoxic, full curve, poor fit] |  |
| OC1(c2ccc(Cl)c(C(F)(F)F)c2)CCN(CCCC(c2ccc(F)cc2)c2ccc(F)cc2)CC1 | active: 29.8 µM | inconclusive: 33.5 µM [cytotoxic, single point] |  |
| CCCC(c1cc(C(C)(C)C)c(O)cc1C)c1cc(C(C)(C)C)c(O)cc1C | active: 24.6 µM | active: 31 µM |  |
| CCCCCCCCCCCCOCCOCCOCCOCCOCCOCCOCCOCCOCCO | inconclusive: 29.8 µM [cytotoxic, partial curve, poor fit] | active: 29.8 µM |  |
| O=C1C=CC(=O)N1c1ccc(Cc2ccc(N3C(=O)C=CC3=O)cc2)cc1 | active: 54.5 µM | inconclusive: 68.6 µM [cytotoxic, single point] |  |
| COC(/C=C(\C)CCC=C(C)C)OC | inconclusive: 15.4 µM [cytotoxic, full curve, poor fit] | inactive |  |
| Cc1cc(OCCOCC[N+](C)(C)Cc2ccccc2)ccc1C(C)(C)CC(C)(C)C | active: 54.2 µM and active: 29.8 µM | active: 60.8 µM and active: 26.6 µM |  |
| CN(C)c1ccc(N=NS(=O)(=O)O)cc1 | inconclusive: 6.11 µM [cytotoxic, partial curve, poor fit] | inconclusive: 27.3 µM [cytotoxic, partial curve, poor fit] |  |
| NC(N)=NN=C(/C=C/c1ccc([N+](=O)[O-])o1)/C=C/c1ccc([N+](=O)[O-])o1 | inconclusive: 33.5 µM [cytotoxic, single point] | inconclusive: 33.5 µM [cytotoxic, single point] |  |
| CCCCCCCC/C=C\CCCCCCCCOCCO | active: 79.4 µM | active: 63.1 µM |  |
| COc1ccc(CN2CCN(C(c3ccc(F)cc3)c3ccc(F)cc3)CC2)c(OC)c1OC | inconclusive: 23.7 µM [cytotoxic] | inconclusive: 26.6 µM [cytotoxic, partial curve, poor fit] |  |

| SMILES | Potency [1] | Potency [2] | activity change, negative = cytotoxicity [2] |
| --- | --- | --- | --- |
| CCCCCCCCCCCC[N+](C)(C)C | active: 54.3 µM and active: 61.1 µM and active: 68.6 µM | inconclusive: 1.36 µM [cytotoxic, full curve, poor fit] and inconclusive: 15.4 µM [cytotoxic, partial curve, poor fit] and inconclusive: 4.86 µM [cytotoxic, full curve, poor fit] |  |
| CCCCc1oc2ccccc2c1C(=O)c1cc(I)c(OCCN(CC)CC)c(I)c1 | inconclusive: 43.6 µM [cytotoxic] and inconclusive: 23.7 µM [cytotoxic, partial curve, poor fit] | inconclusive: 48.9 µM [cytotoxic] and inconclusive: 11.9 µM [cytotoxic, single point] |  |
| CNCCCC12CCC(c3ccccc31)c1ccccc12 | inconclusive: 68.6 µM [cytotoxic, single point] | inconclusive: 77 µM [cytotoxic, single point] |  |
| NCc1cccc(C2CCN(C(=O)c3ccc(C#Cc4ccccc4F)o3)CC2)c1 | active: 68.6 µM | inconclusive: 68.6 µM [cytotoxic, single point] |  |
| C=CC(=O)OCC(C)OCC(C)OCC(C)OC(=O)C=C (configuration not stated) | inconclusive: 61.1 µM [rising, partial curve] | inconclusive: 54.5 µM [rising, partial curve, poor fit] |  |
| CCCCN(CCCC)c1ccc(C(=O)c2ccccc2C(=O)O)c(O)c1 | inconclusive: 69.2 µM [cytotoxic, single point] | inconclusive: 77.7 µM [cytotoxic, single point] |  |
| CCCCC(CC)COC(=O)C(C#N)=C(c1ccccc1)c1ccccc1 (configuration not stated) | inconclusive: 13.7 µM [cytotoxic, partial curve, poor fit] | inconclusive: 0.668 µM [cytotoxic, single point] |  |
| [O-][n+]1ccccc1SSc1cccc[n+]1[O-] | active: 0.461 µM |  | inactive: -16.6% [at 18.9 µM] |
| CCCCCCCC[P+](CCCCCCCC)(CCCCCCCC)CCCCCCCC | active: 17.1 µM | active: 21.6 µM |  |
| CC1=C(/C=C/C(C)=C/C=C/C(C)=C/C=O)C(C)(C)CCC1 | inconclusive: 68.2 µM [cytotoxic, single point] | inconclusive: 48.3 µM [cytotoxic, partial curve, poor fit] |  |
| OC[C@H]1O[C@@H](n2cnc3c(=S)nc[nH]c32)[C@H](O)[C@@H]1O | inconclusive: 10.6 µM [cytotoxic, partial curve] | inconclusive: 3.76 µM [cytotoxic, full curve] |  |
| C=CC(=O)OCCOCC(CC)(COCCOC(=O)C=C)COCCOC(=O)C=C | inconclusive: 4.51 µM [rising, full curve, poor fit] | inconclusive: 25.3 µM [rising, partial curve, poor fit] |  |
| CCCCC(CC)COC(=O)CC(C(=O)OCC(CC)CCCC)S(=O)(=O)O (configuration not stated) | inconclusive: 52.4 µM [cytotoxic, partial curve, poor fit] and inconclusive: 30.6 µM [cytotoxic, partial curve, poor fit] | inconclusive: 52.4 µM [cytotoxic] and inconclusive: 68.6 µM [cytotoxic, single point] |  |
| c1ccc(-c2nc3ccccc3[nH]2)cc1 | inconclusive: 30.6 µM [cytotoxic, partial curve, poor fit] | inconclusive: 68.6 µM [cytotoxic, single point] |  |
| CCOc1ccccc1N | inconclusive: 24.2 µM [cytotoxic, single point] | inconclusive: 27.1 µM [cytotoxic, single point] |  |
| O=C1C=CC(=O)N1c1cccc(N2C(=O)C=CC2=O)c1 | inconclusive: 68.6 µM [cytotoxic, single point] | inconclusive: 68.6 µM [cytotoxic, single point] |  |
| CC[C@@H]([C@H](C)O)n1ncn(-c2ccc(N3CCN(c4ccc(OC[C@@H]5CO[C@@](Cn6cncn6)(c6ccc(F)cc6F)C5)cc4)CC3)cc2)c1=O | inconclusive: 23.7 µM [cytotoxic, partial curve] | active: 26.6 µM |  |
| O=C1c2ccccc2C(=O)N1CCc1noc(-c2ccc(CN3CCCCCC3)s2)n1 | inconclusive: 37 µM [cytotoxic, partial curve, poor fit] | inconclusive: 44.5 µM [cytotoxic, partial curve, poor fit] |  |
| CCCCCCCCCCCC[N+](C)(C)Cc1ccccc1 | active: 60 µM and active: 59.2 µM and active: 13.3 µM | active: 53.4 µM and active: 37.4 µM and active: 29.8 µM |  |
| COc1ccc2cc(S(=O)(=O)N[C@H](CC(=O)N[C@H](Cc3ccc(CN4[C@H](C)CCC[C@@H]4C)cc3)C(=O)N(C)C(C)C)c3ccc4c(c3)OCO4)ccc2c1 | inconclusive: 64.9 µM [cytotoxic] | inconclusive: 64.9 µM [cytotoxic, single point] |  |
